Source: the supplement of paper PMC6531468
This is one part of the list. Values come from read counts of a selection and are noisy. Each score is taken over the longer molecules that contain the sequence shown.

tested on: IMP3 KH1-4; assay: 6-mer SELEX enrichment z-score vs GST control; IMP3 is the RNA-binding protein IGF2BP3; higher = more enriched by binding; conditions: construct: KH1-4 (164-579); SELEX round: R4
Method: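 SELEX-seq with GST-tagged IMP3 KH1-4 (Pro164-Lys579) and an N40 RNA pool, round 4. 6-mer z-score of sequence-tag enrichment normalised to the corresponding GST SELEX round; RNA k-mers written as DNA (T for U).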

IMP3 KH1-4, sequence (chain, as listed by the source): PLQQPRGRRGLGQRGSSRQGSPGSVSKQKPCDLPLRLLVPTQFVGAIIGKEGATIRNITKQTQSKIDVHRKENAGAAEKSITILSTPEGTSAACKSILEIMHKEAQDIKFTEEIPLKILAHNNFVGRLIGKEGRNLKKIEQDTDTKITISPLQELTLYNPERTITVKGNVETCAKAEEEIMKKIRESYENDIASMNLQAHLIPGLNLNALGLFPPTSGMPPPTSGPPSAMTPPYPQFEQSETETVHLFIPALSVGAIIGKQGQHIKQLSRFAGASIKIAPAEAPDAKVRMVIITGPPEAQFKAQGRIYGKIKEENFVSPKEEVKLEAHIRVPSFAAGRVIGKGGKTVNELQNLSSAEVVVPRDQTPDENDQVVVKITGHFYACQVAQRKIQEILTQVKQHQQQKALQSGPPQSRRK

Sequence | 6-mer SELEX enrichment z-score
CATCTT | 0.511
CTGTCC | 0.402
CCAAGT | -0.703
ATAATG | 1.59
GACTCT | -0.477
GTGTGA | 0.517
CGCACG | 0.146
AACTGC | 0.055
TCTGTA | 0.287
ACAAGA | 0.217
ACTCTT | -0.102
GTCTTC | -0.204
AGATAT | 1.11
GTTTGT | 0.078
TACAGG | 1.06
GCAGAG | 0.113
GCACCC | -0.268
TGGAGG | 0.699
TGGCGT | -0.802
CGTCCT | -0.236

Sequence | 6-mer SELEX enrichment z-score
ACGCCA | 0.195
TCGCTT | 0.278
TGTGAG | 0.194
TCAGTA | 0.276
CCGATG | -0.806
GATGTG | 0.775
GCCTTT | 0.092
ACCGGG | -1.17
ACACTT | 1.37
GTTTGG | -0.122
GTCGAC | -0.402
CGGCCT | 0.437
ATCTGT | 0.432
GTTAAT | 0.262
ATTCGA | -0.703
GCGTGA | -1.19
CGTGGG | -0.648
CCCAGT | -0.58
CAAAGG | -0.376
CAGGGA | 0.826

tested on: IMP3 RRM1-2; assay: as above; conditions: construct: RRM1-2 (1-163); SELEX round: R2
Sequence (chain, as listed by the source): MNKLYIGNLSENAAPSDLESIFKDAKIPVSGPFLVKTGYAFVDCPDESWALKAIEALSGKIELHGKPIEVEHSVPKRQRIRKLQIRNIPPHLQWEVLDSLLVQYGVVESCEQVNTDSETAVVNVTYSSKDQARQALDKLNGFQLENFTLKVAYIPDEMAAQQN
Method: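 SELEX-seq with GST-tagged IMP3 RRM1-2 (Met1-Asn163) and an N40 RNA pool, round 2. 6-mer enrichment z-score normalised to GST SELEX. RNA written as DNA (T = U).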

Sequence | 6-mer SELEX enrichment z-score
CATCTT | 0.666
CTGTCC | -0.13
CCAAGT | -0.381
ATAATG | -0.42
GACTCT | -0.226
GTGTGA | -0.238
CGCACG | 0.374
AACTGC | -0.794
TCTGTA | 0.174
ACAAGA | -0.222
ACTCTT | 0.22
GTCTTC | 0.419
AGATAT | -0.321
GTTTGT | 0.358
TACAGG | 0.446
GCAGAG | 0.07
GCACCC | -0.377
TGGAGG | 0.023
TGGCGT | 0.404
CGTCCT | -0.017

Sequence | 6-mer SELEX enrichment z-score
ACGCCA | -0.324
TCGCTT | 0.344
TGTGAG | -0.164
TCAGTA | 0.602
CCGATG | -0.844
GATGTG | -0.32
GCCTTT | 0.121
ACCGGG | -0.834
ACACTT | 0.947
GTTTGG | 0.393
GTCGAC | 0.134
CGGCCT | 0.07
ATCTGT | 0.224
GTTAAT | 0.001
ATTCGA | -0.235
GCGTGA | -0.181
CGTGGG | 0.186
CCCAGT | -0.42
CAAAGG | -0.52
CAGGGA | 0.087

molecular target: IMP3 full-length (UniProt O00425); assay: as above; conditions: construct: FL IMP3 (1-579); SELEX round: R4
UniProt O00425, sequence (O00425 whole entry): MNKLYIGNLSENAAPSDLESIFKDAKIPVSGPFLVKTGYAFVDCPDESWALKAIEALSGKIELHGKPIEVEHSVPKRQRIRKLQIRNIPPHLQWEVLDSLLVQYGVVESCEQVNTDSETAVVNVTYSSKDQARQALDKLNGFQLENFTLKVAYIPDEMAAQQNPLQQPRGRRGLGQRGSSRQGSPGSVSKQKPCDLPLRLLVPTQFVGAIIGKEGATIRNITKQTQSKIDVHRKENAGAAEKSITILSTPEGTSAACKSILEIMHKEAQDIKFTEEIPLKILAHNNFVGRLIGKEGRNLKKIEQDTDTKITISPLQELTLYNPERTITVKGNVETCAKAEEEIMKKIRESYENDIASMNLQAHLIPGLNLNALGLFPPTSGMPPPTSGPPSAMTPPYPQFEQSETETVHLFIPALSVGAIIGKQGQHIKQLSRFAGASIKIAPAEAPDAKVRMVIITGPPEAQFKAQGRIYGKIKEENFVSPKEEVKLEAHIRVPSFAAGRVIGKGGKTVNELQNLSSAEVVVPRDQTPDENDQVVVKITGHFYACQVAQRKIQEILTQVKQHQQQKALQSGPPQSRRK
Method: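 SELEX-seq with GST-tagged full-length IMP3 and an N40 RNA pool, round 4. Each 6-mer is scored as an enrichment z-score of sequence tags containing it, normalised to the matching GST SELEX round. RNA written as DNA (T = U).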

Sequence | 6-mer SELEX enrichment z-score
CATCTT | 0.796
CTGTCC | -0.1
CCAAGT | -0.531
ATAATG | 0.044
GACTCT | -0.401
GTGTGA | -0.208
CGCACG | 0.904
AACTGC | -0.538
TCTGTA | 0.161
ACAAGA | -0.123
ACTCTT | -0.229
GTCTTC | 0.116
AGATAT | 0.021
GTTTGT | -0.029
TACAGG | 0.854
GCAGAG | 0.687
GCACCC | 0.22
TGGAGG | 0.393
TGGCGT | -0.051
CGTCCT | 0.018

Sequence | 6-mer SELEX enrichment z-score
ACGCCA | 0.175
TCGCTT | 0.207
TGTGAG | -0.224
TCAGTA | 0.709
CCGATG | -0.765
GATGTG | -0.191
GCCTTT | -0.093
ACCGGG | -0.131
ACACTT | 0.77
GTTTGG | 0.049
GTCGAC | 0.148
CGGCCT | 0.826
ATCTGT | 0.34
GTTAAT | -0.093
ATTCGA | -0.413
GCGTGA | -0.391
CGTGGG | -0.2
CCCAGT | -0.301
CAAAGG | 0.015
CAGGGA | 0.409

tested on: IMP3 KH1-2; assay: as above; conditions: construct: KH1-2 (164-376); SELEX round: R4
Sequence (chain, as listed by the source): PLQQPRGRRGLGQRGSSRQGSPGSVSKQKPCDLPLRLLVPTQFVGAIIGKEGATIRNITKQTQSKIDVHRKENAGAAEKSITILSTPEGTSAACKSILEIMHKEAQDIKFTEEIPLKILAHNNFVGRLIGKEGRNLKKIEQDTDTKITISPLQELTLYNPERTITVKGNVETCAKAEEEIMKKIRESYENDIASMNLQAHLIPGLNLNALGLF
Method: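 SELEX-seq with GST-tagged IMP3 KH1-2 (Pro164-Phe376) and an N40 RNA pool, round 4 (stringent 300/600 mM KCl washes). 6-mer z-score of sequence-tag enrichment normalised to the corresponding GST SELEX round; RNA k-mers written as DNA (T for U).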

Sequence | 6-mer SELEX enrichment z-score
CATCTT | 0.275
CTGTCC | 0.231
CCAAGT | -0.748
ATAATG | 1.18
GACTCT | -0.41
GTGTGA | 0.18
CGCACG | 0.155
AACTGC | 0.205
TCTGTA | 0.306
ACAAGA | 0.389
ACTCTT | 0.048
GTCTTC | -0.089
AGATAT | 0.963
GTTTGT | 0.031
TACAGG | 0.846
GCAGAG | 0.09
GCACCC | -0.451
TGGAGG | 0.721
TGGCGT | -0.646
CGTCCT | -0.288

Sequence | 6-mer SELEX enrichment z-score
ACGCCA | 0.246
TCGCTT | 0.307
TGTGAG | 0.021
TCAGTA | 0.28
CCGATG | -0.681
GATGTG | 0.446
GCCTTT | 0.142
ACCGGG | -0.879
ACACTT | 1.51
GTTTGG | -0.027
GTCGAC | -0.414
CGGCCT | 0.313
ATCTGT | 0.311
GTTAAT | 0.204
ATTCGA | -0.611
GCGTGA | -1.02
CGTGGG | -0.432
CCCAGT | -0.458
CAAAGG | -0.384
CAGGGA | 0.778

tested on: IMP3 KH3-4; assay: as above; conditions: construct: KH3-4 (377-579); SELEX round: R4
Sequence (chain, as listed by the source): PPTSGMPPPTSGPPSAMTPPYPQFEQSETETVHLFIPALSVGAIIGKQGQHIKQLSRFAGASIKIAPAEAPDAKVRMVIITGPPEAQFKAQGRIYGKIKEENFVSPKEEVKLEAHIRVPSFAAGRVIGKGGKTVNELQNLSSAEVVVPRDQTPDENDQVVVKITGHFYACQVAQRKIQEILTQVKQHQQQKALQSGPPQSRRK
Method: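 SELEX-seq with GST-tagged IMP3 KH3-4 (Pro377-Lys579) and an N40 RNA pool, round 4. 6-mer z-score of sequence-tag enrichment normalised to the corresponding GST SELEX round; RNA k-mers written as DNA (T for U).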

Sequence | 6-mer SELEX enrichment z-score
CATCTT | 0.051
CTGTCC | -0.372
CCAAGT | -0.856
ATAATG | 2.36
GACTCT | -0.442
GTGTGA | 0.381
CGCACG | -0.375
AACTGC | -0.344
TCTGTA | 0.249
ACAAGA | 0.584
ACTCTT | -0.075
GTCTTC | -0.111
AGATAT | 1.66
GTTTGT | 0.264
TACAGG | 0.998
GCAGAG | 0.025
GCACCC | -1.1
TGGAGG | 0.653
TGGCGT | -0.427
CGTCCT | -0.416

Sequence | 6-mer SELEX enrichment z-score
ACGCCA | -0.439
TCGCTT | 0.333
TGTGAG | 0.269
TCAGTA | 0.259
CCGATG | -0.877
GATGTG | 0.638
GCCTTT | 0.172
ACCGGG | -1.07
ACACTT | 0.81
GTTTGG | 0.127
GTCGAC | -0.512
CGGCCT | 0.435
ATCTGT | 0.259
GTTAAT | 0.519
ATTCGA | -0.483
GCGTGA | -0.764
CGTGGG | -0.438
CCCAGT | -0.836
CAAAGG | -0.231
CAGGGA | 0.651
